Test results from PubChem BioAssay AID504332 (National Center for Advancing Translational Sciences (NCATS), 2011).
About 31,000 (8.9%) of roughly 350,000 compounds were called active. The shares of active, inactive and inconclusive entries below differ from those in the screen. Calls follow the shape of the dose curve; as a rule, active = well fitted inhibition curve with a large enough effect; inconclusive = small, poorly fitted or top-dose-only effect; inactive = no such curve, though single readings can be large or run the other way. Potencies beside an inconclusive call are fits to weak or partial responses and may not hold up.

Target: Histone-lysine N-methyltransferase EHMT2 (Homo sapiens) (UniProt Q96KQ7)
Assay: qHTS Assay for Inhibitors of Histone Lysine Methyltransferase G9a; also: nearly all actives have a fitted effect of over 75% in size
Conditions: G9a H3K9 monomethylation, AlphaScreen, 2 h; activity, negative = inhibition: at 59 µM (top of the series) unless noted
Method in brief: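 AlphaScreen detection with an anti-monomethyl H3K9 antibody quantified product after a 2 h room-temperature reaction containing 500 nM biotinylated H3K9 peptide, 20 µM SAM and 20 nM enzyme, which had been preincubated 15 min with compound.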
% is scaled to controls: 0 for no effect and ±100 for the full control effect; potency is read from the fitted curve at half-maximal effect; tags tell the direction and shape of the fitted curve.

UniProt Q96KQ7, sequence (Q96KQ7 whole entry, looked up): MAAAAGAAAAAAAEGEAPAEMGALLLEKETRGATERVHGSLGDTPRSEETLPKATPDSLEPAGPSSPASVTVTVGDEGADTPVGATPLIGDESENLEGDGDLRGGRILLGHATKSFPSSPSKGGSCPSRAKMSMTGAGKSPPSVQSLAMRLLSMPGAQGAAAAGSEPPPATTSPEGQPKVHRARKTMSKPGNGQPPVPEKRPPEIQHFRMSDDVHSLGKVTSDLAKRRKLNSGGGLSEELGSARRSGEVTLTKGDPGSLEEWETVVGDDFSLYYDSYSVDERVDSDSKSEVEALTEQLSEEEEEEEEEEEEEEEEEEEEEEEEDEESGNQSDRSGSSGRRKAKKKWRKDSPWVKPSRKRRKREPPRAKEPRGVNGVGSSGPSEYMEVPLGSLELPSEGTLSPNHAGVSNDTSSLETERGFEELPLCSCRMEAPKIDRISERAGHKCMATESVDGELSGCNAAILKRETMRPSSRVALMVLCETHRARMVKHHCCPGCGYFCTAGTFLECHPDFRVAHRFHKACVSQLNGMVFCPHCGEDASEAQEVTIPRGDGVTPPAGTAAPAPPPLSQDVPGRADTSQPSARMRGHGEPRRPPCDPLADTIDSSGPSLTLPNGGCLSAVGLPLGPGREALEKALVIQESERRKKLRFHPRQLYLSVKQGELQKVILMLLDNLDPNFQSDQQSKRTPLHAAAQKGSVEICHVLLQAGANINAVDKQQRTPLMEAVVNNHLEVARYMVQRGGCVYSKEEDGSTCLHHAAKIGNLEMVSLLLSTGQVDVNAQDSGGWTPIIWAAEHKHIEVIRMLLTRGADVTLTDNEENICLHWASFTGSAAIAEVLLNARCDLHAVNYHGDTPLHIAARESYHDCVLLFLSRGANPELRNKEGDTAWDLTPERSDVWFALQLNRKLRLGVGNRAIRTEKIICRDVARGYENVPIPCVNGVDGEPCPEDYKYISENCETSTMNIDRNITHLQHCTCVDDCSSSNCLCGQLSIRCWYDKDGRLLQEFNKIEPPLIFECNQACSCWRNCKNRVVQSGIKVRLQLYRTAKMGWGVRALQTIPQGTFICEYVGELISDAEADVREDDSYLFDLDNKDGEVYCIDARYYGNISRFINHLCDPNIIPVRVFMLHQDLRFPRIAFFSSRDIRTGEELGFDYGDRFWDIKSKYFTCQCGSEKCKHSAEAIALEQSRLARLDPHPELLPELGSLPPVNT

Structure (SMILES)	Potency	activity, negative = inhibition
Nc1c(C(=O)CSc2nc(-c3ccccc3)cs2)c(=O)[nH]c(=O)n1C1CC1	inconclusive: 14.1 µM [inhibitor, single point]	
Nc1nc(NC(=O)c2cccnc2)nn1-c1ccccc1	active: 14.1 µM	
COc1ccc(OC)c(C(=O)CSc2nc3ncccc3[nH]2)c1	active: 50.1 µM	
O=C(CSc1nnc(CNC(=O)c2ccccc2)o1)NCc1ccccc1Cl	inactive	
CC1=NN(c2ccccc2)C(=O)/C1=C/c1ccc(Cl)cc1	active: 39.8 µM	
CCOc1c(C)cc2[nH]c(CCC(=O)O)nc2c1C	active: 12.6 µM	
Cc1nc(SCc2ccccc2Cl)c(C#N)c(C)c1C	inactive	
Cn1c(SCC(=O)N2CCc3ccccc3C2)nnc1-c1ccncc1	inconclusive: 22.4 µM [inhibitor, single point]	
Cc1cc(NC(=O)CSc2ccc(-c3nc4cc(C)c(C)cc4[nH]3)cn2)no1		inconclusive: -56% [inhibitor] [at 12.7 µM]
CC1CCCCC12NC(=O)N(CC(=O)NCCc1ccc(F)cc1)C2=O (stereo unspecified)	inconclusive: 1.78 µM [inhibitor, full curve, poor fit]	
CCC(Sc1n[nH]c(=O)[nH]c1=O)C(=O)OCc1ccccc1 (stereo unspecified)	inconclusive: 31.6 µM [inhibitor, partial curve, poor fit]	
COc1ccc(CN2CCC(N(CCc3ccccc3)Cc3ccccc3)CC2)c(OC)c1	inconclusive: 39.8 µM [inhibitor, partial curve, poor fit]	
CCn1cc(C(=O)NCCc2ccc(Cl)cc2)c(=O)c2ccc(C)nc21	inactive	
Cc1c(NC(=O)C(C)SC(=S)N2CCCC2)c(=O)n(-c2ccccc2)n1C (stereo unspecified)		inactive: -6.54% [at 2.33 µM]
COc1cc(CNCCc2ccccc2)ccc1OCC(=O)NC(C)(C)C	inconclusive: 70.8 µM [inhibitor, single point]	
O=C(O)CC(Cc1ccc(Cl)cc1)C(=O)Nc1ccc([N+](=O)[O-])cc1 (stereo unspecified)	inconclusive: 35.5 µM [inhibitor, partial curve, poor fit]	
COc1ccc(CCNC(=O)C2CCN(C(=O)c3ccc(C(C)(C)C)cc3)CC2)cc1OC	inconclusive: 31.6 µM [inhibitor, single point]	
COc1ccc(CNC(=O)Cc2ccc(-c3ccccc3)cc2)cc1OC	inconclusive: 89.1 µM [inhibitor, single point]	
CCN(CC)CCN1C(=O)C(=O)/C(=C(/O)c2c(C)[nH]c(C(=O)OC)c2C)C1c1cccc(OC)c1 (stereo unspecified)	inconclusive: 0.158 µM [inhibitor, full curve, poor fit]	
Cc1cc(NC(=O)COC(=O)C2CC(=O)N(c3cccc(Cl)c3)C2)no1 (stereo unspecified)	inactive	
COc1ccc(-c2nnn(CC(=O)N(CC(=O)NC3CCCC3)c3cccc(C)c3)n2)cc1OC	inconclusive: 79.4 µM [inhibitor, partial curve, poor fit]	
N#Cc1c(Nc2ccc(F)cc2)sc(C(=O)c2ccccc2)c1N	inactive	
CCOC(=O)N1CCN(c2c(N3CCc4ccccc43)c(=O)c2=O)CC1	inconclusive: 79.4 µM [inhibitor, single point]	
CCc1cccc(NC(=O)CSc2n[nH]c(-c3ccccc3Cl)n2)c1	inactive	

Structure (SMILES)	Potency	activity, negative = inhibition
O=c1oc2c(CN3CCCCC3)c(O)ccc2cc1-c1nc2ccccc2[nH]1		inactive: 13.6% [at 12.7 µM]
C=CCO/N=C(/C)c1c(O)c(CC)c(-c2ccccc2)n(-c2ccccc2)c1=O	inconclusive: 25.1 µM [inhibitor, single point]	
c1ccc(OCCn2c(-c3ccco3)nc3ccccc32)cc1	active: 39.8 µM	
CC1=C(C(N)=O)C(c2cccnc2)n2nc(SCc3ccccc3Cl)nc2N1 (stereo unspecified)	inconclusive: 25.1 µM [inhibitor, single point]	
CCCCn1nnnc1SCC(=O)Nc1ccc(N(C)C)cc1	active: 44.7 µM	
O=[N+]([O-])c1ccc(CNc2cccc(Cl)c2)s1	active: 44.7 µM	
COc1ccc(-n2c(SCC(=O)N3CCOCC3)nc(O)cc2=O)cc1	inconclusive: 4.47 µM [inhibitor, partial curve]	
Cn1c(OCc2ccco2)nc2c1c(=O)n(Cc1ccc(Cl)c(Cl)c1)c(=O)n2C		inconclusive: -93.9% [inhibitor]
CCCNC(=O)Cn1ncc2c3ccccc3n(CCC)c2c1=O	inactive	
CC(C)N1C(=O)CCC1C(=O)N1CCN(c2ccccn2)CC1 (stereo unspecified)	inconclusive: 8.91 µM [inhibitor, partial curve, poor fit]	
CCOC(=O)C1CCCN(C(=O)Cn2ncc3c(C)n(Cc4ccc(F)cc4)c(C)c3c2=O)C1 (stereo unspecified)	inactive	
CCOc1ccc(OCC)c(NC(=O)c2cnn(-c3ccc(F)cc3)c2C2CCN(C(=O)OC(C)(C)C)CC2)c1	inconclusive: 10 µM [inhibitor, partial curve]	
Cn1c(NCCN(CCO)CCCc2ccc([N+](=O)[O-])cc2)cc(=O)n(C)c1=O	inconclusive: 39.8 µM [inhibitor, single point]	
COc1ccc(S(=O)(=O)Nc2cccc(/C=C/C(=O)O)c2)cc1	inconclusive: 3.55 µM [inhibitor, single point]	
O=C(O)c1ccccc1CSc1nc2ccccc2n1Cc1ccccc1C(=O)O	inconclusive: 50.1 µM [inhibitor, partial curve]	
Cc1noc(C)c1COc1cccc(C(=O)Nc2ccc3c(c2)OCO3)c1	inconclusive: 89.1 µM [inhibitor, partial curve, poor fit]	
CC(=O)C1=C(O)C(=O)N(CC(=O)O)C1c1ccccc1Cl (stereo unspecified)	active: 50.1 µM	
CSCC(=O)NC1CCCc2c1cnn2-c1cc(F)cc(F)c1 (stereo unspecified)	inconclusive: 89.1 µM [inhibitor, single point]	
O=C(NCCc1ccccc1)c1ccco1	inactive	
COc1ccc(-n2ccnc(NCc3cccs3)c2=O)cc1	inconclusive: 14.1 µM [inhibitor, partial curve]	
CCOC(=O)Cn1nnnc1CN1CCN(c2ccc(OC)cc2)CC1	inconclusive: 50.1 µM [inhibitor, partial curve]	
O=c1c2c3c(sc2nnn1Cc1ccc(F)cc1)CCCC3	inactive	
CCOC(=O)C1=C(c2ccccc2)NC(=O)NC1c1cc(OC)c(O)c([N+](=O)[O-])c1 (stereo unspecified)		inactive: -5.31% [at 0.501 µM]
CC(=O)N1CCN(S(=O)(=O)c2cccc(C(=O)OCc3ccc(C(C)(C)C)cc3)c2)CC1	inconclusive: 12.6 µM [inhibitor, partial curve, poor fit]	

Structure (SMILES)	Potency	activity, negative = inhibition
Cc1cc(C)c2c(N)c(C(=O)NN3CC(=O)N(c4cccc(Cl)c4)CC3=O)sc2n1	inconclusive: 50.1 µM [inhibitor, partial curve, poor fit]	
Cc1nc(NS(=O)(=O)c2ccccc2)sc1NC(=O)Nc1ccccc1	inconclusive: 44.7 µM [inhibitor, partial curve]	
Cc1ccc(C(=O)Nc2nnc(S(=O)(=O)N(C)Cc3ccc(F)cc3)s2)cc1	inactive	
CCN1CCN(C(CNS(=O)(=O)c2ccc(OC)cc2)c2cccnc2)CC1 (stereo unspecified)	inconclusive: 44.7 µM [inhibitor, partial curve]	
CC(C)c1ccc(-c2nc3c([nH]2)c(=O)n(C)c(=O)n3C)cc1	inactive	
Cc1ccc(NC(=O)C(Cc2ccccc2)NC(=O)c2ccco2)cc1 (stereo unspecified)	inconclusive: 89.1 µM [inhibitor, single point]	
CN1CCN(c2nc(-c3ccccc3)cc(C(F)(F)F)n2)CC1	inconclusive: 89.1 µM [inhibitor, single point]	
N#CC1=C(N)SC(N)=C(C#N)C1c1cccc(Oc2ccccc2)c1		inconclusive: -92.2% [inhibitor]
COc1ccc(NC(=O)c2oc3ccc(S(=O)(=O)N4CCCCC4)cc3c2C)cc1Cl	inactive	
COc1ccc(C(=O)N/N=C(\N)c2cc3ccccc3oc2=O)cc1	inactive	
Cc1ccc2nc(NC(=O)c3nc(SCc4ccccc4F)ncc3Cl)sc2c1	inactive	
Cc1ccc(Cn2ccc(NC(=O)C3C4CCC(C4)C3C(=O)O)n2)cc1 (stereo unspecified)	active: 56.2 µM	
C=CCSc1nc(C)c(CC(=C)C)c(=O)[nH]1	inactive	
O=C(NNC(=O)C1C2C=CC(C2)C1C(=O)O)c1cc(Cl)ccc1O (stereo unspecified)	inactive	
CC(Oc1ccc(F)cc1)C(=O)Nc1ccccc1C(=O)N1CCCCC1 (stereo unspecified)	inactive	
CC(C)CN1CCN(Cc2nc3ccccc3s2)CC1CCO (stereo unspecified)	inconclusive: 44.7 µM [inhibitor, partial curve]	
O=C(O)CCN1C(=O)/C(=C\c2cccc(Oc3ccccc3)c2)SC1=S	active: 50.1 µM	
Cc1nc2sc(C(N)=O)c(N)c2c(C)c1CC(=O)c1ccccc1	active: 14.1 µM	
CCOC(=O)c1sc(NC(=O)C2CSC3(C)CCC(=O)N23)nc1C (stereo unspecified)		inactive: 20.6% [at 12.7 µM]
COc1ccc(CNC(=O)CSc2nc3[nH]ncc3c(=O)n2-c2ccccc2Br)cc1	inconclusive: 35.5 µM [inhibitor, partial curve, poor fit]	
COc1ccc(NS(=O)(=O)c2ccc(C)cc2)c([N+](=O)[O-])c1	inconclusive: 35.5 µM [inhibitor, partial curve, poor fit]	
Cc1ccc(Nc2nc(CSc3nnc(-c4cccs4)o3)cs2)cc1		inconclusive: -66.2% [inhibitor]
Cc1nc(SCC(=O)Nc2ccccc2Cl)c2c(C)c(C)sc2n1	inconclusive: 31.6 µM [inhibitor, single point]	
